The values below come from PMC4336329 (PLoS ONE, 2015).

SMILES strings stand for the structures. Hit rate of the full screen: of about 310,000 compounds, about 14,000 (4.5%) showed an effect of 50% or more. Effects have a minus sign here. Some of the results follow.
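Note: peak tail current of the secondary pulse compared with the same well before compound.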

For the assay, the target named is human ether-à-go-go-related gene (hERG) potassium channel (human, UniProt Q12809). Put plainly: primary screen, population patch clamp on CHO cells stably expressing hERG.
Sequence of human ether-à-go-go-related gene (hERG) potassium channel (Q12809 whole entry, looked up): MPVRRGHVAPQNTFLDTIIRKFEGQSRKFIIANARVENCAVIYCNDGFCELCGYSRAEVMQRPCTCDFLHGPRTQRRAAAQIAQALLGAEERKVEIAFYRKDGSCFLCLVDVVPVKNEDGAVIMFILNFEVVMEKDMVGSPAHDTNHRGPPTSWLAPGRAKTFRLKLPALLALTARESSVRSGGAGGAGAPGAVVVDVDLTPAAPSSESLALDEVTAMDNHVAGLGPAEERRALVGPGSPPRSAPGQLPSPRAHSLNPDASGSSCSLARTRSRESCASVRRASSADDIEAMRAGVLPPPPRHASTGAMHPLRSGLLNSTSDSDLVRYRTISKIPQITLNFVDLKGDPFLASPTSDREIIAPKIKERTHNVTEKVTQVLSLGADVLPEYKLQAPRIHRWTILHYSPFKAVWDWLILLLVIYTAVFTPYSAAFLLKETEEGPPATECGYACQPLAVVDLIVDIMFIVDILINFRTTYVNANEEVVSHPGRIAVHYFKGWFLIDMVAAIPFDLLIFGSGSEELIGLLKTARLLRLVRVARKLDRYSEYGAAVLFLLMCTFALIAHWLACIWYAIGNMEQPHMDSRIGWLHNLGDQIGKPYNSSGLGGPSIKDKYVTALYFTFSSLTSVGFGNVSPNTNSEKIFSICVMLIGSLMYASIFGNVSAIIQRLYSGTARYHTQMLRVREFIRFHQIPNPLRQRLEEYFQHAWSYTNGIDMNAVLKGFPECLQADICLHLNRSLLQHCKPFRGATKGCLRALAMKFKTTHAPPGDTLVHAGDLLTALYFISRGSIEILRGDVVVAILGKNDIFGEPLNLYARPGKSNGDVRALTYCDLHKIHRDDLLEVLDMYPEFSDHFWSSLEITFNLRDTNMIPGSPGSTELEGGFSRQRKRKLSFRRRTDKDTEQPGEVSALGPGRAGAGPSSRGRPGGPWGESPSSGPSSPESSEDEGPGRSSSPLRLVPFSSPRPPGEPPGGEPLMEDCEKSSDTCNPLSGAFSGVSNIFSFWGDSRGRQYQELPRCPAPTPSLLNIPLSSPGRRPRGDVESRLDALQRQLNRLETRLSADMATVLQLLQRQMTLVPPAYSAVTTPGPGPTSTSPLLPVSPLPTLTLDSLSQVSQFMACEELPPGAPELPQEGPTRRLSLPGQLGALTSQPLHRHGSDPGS
With `Cc1ccc2[nH]c(=O)c(CN(Cc3cccnc3)Cc3nnnn3CCN3CCOCC3)cc2c1`, the “hERG current change (%, negative = inhibition) at 10uM” value is given as -0.407%.
As for `COc1ccccc1OCCCCN1CCN(c2ccccc2OC)CC1.O=C(O)C(=O)O`, the figure is -43.1%; as for `O=C(Nc1ccc2nc(-c3ccccc3)[nH]c2c1)c1ccco1`, -30.8%; as for `O=P(Cc1ccccn1)(c1ccccc1)c1ccccc1`, 7.79%.
The value for `COc1cccc(OC)c1C(=O)Nc1ccc(S(=O)(=O)N2CCCCC2)cc1` was 8.72%; that for `O=C1NCCC12C(=O)Nc1ccccc12` (centres unmarked) was 23.4%; that for `COC(=O)c1ccc(Oc2cc(C)nc(Cl)n2)cc1` was 13.9%.
On to `O=C1C(Cl)=C(N2CCN(c3ccccc3[N+](=O)[O-])CC2)C(=O)c2ccccc21`, for which the “hERG current change (%, negative = inhibition) at 10uM” value was -19.8%.
As for `Cc1cccc2cc(CN(Cc3ccc(F)cc3)C(=O)N(C)C)c3nnnn3c12`, the “hERG current change (%, negative = inhibition) at 10uM” value is recorded as -41.4%.
As for `Br.O=C(O)Cc1sc(N/N=C\c2ccncc2)nc1-c1ccccc1`, the figure is 7.53%; as for `O=C(Cc1ccccc1Cl)NCCCn1ccnc1`, 5.85%.
For the molecule `Nc1nc(SCCO)[nH]c(=O)c1NC(=O)c1ccc(Br)o1`, the “hERG current change (%, negative = inhibition) at 10uM” value is on record as 23.8%.
As for `COc1ccc(/C(C)=N/NC(=O)c2sccc2-n2cccc2)cc1`, the figure is 19%; as for `COc1ccc(C(=O)NC(C(=O)NCc2ccccn2)C(C)C)cc1` (centres unmarked), 11.1%; as for `CN(C)C=NC(=O)c1[nH]c2ccc(Cl)cc2c1-c1ccccc1`, 18.3%.
As for `COc1ccc(OC)c(CN2CCCC(C(=O)c3ccccc3SC)C2)c1` (centres unmarked), the figure is -75.9%; as for `CN(C)/C=N/c1nccc(-c2cccs2)n1`, 16.8%.
As for `CCCCC(=O)OCC(=O)c1[nH]c(C)c(C(C)=O)c1C`, the figure is -2.36%; as for `CCOC(=O)c1nc2c(ccc3ccccc32)cc1C`, 8.86%; as for `CCC1CCCCN1CCCNC(=O)C1CCN(S(=O)(=O)N2CCC3(CC2)OCCO3)CC1` (centres unmarked), 18.8%.
As to `C/C(=N/NC(=O)CN1CCN(Cc2ccccc2Cl)CC1)c1cccnc1`, the “hERG current change (%, negative = inhibition) at 10uM” value is given as -10.4%.
The value for `CCc1ccccc1N(CC(=O)NC(C)(C)C)C(=O)CCC(=O)Nc1ccccn1` was 27.6%; that for `COc1cc(NC(=S)NCCCN2CCOCC2)cc(OC)c1OC` was -3.22%; that for `COc1ccc(C2(CNC(=O)C(c3ccccc3)c3ccccc3)CCOCC2)cc1OC` was 4.38%.
The value for `N#CCOc1nc(N2CCCCC2)nc(N2CCCCC2)n1` was -21.8%; that for `Cc1cc(OCc2cc(C(=O)N3CCCCCC3)no2)cc(C)c1Cl` was 11.8%.
As for `Cc1ccc2nc3c(c(Nc4ccc(O)cc4)c2c1)CCC3.Cl`, the figure is -21.2%; as for `CC(C)Oc1ccc(C(CCNCc2ccc(O)cc2)c2ccccc2)cc1` (centres unmarked), -58.7%; as for `CCc1nc(SCC(=O)N2CCCC2)c2c(=O)n(C)c(=O)n(C)c2n1`, -15.4%.
Take `CC1CCCCN1CCCNC(=O)CN1C(=O)c2cccnc2Oc2ccc(Cl)cc21` (centres unmarked): the “hERG current change (%, negative = inhibition) at 10uM” value was found to be 5.94%.
As for `COC1=C/C(=C/c2c(O)c(C#N)c3ccccn23)C=CC1=O`, the figure is 24%.
For the molecule `O=C1CCCN2N=C(SCC(=O)N3CCCCC3)SC2=N1`, the “hERG current change (%, negative = inhibition) at 10uM” value is listed as 13.2%.
As for `COc1cc(C2c3c(-c4ccccc4)n[nH]c3C(=O)N2c2ccccc2)ccc1O` (centres unmarked), the figure is -13%.
As for `CC1=Nc2ccccc2/C1=C/c1sc(=N)n(-c2nccs2)c1O`, the “hERG current change (%, negative = inhibition) at 10uM” value is given as 10.5%.
As for `CCOC(=O)c1cnc(-n2nc(C)cc2C)nc1Nc1cccc(C(=O)O)c1`, the figure is 0.0989%.
The value for `COCCCNC(=S)N1CCC(NC(=O)c2ccco2)CC1` was -4.82%.
`COc1ccc(CC(=O)N/N=C(\C)CC(=O)Nc2ccc3c(c2)OCCO3)cc1`: the “hERG current change (%, negative = inhibition) at 10uM” value is 8.58%.
Take `O=C(/C=C/c1ccccc1)n1cnnc1SC/C=C/c1ccccc1`: the “hERG current change (%, negative = inhibition) at 10uM” value was -0.689%.
The value for `COc1ccc(-n2c(-c3ccc(Br)cc3)nc(=S)c3c2CCCC3)cc1` was -1.32%; that for `CCn1c(C)nc2cc(C(=O)NNC(=O)CCC3CCCCC3)ccc21` was -27.4%.
The value for `Cn1c2ccccc2c(=O)c2c(=O)n(Cc3ccccc3)c(-c3ccc(F)cc3)nc21` was 15.5%; that for `COc1cccc(C(C(=O)NC2CCCCC2)N(CCN2CCOCC2)C(=O)C2COc3ccccc3O2)c1` (centres unmarked) was -31.3%.
As for `CCOc1ccc(Nc2cc(C)nc3ccc(C)cc23)cc1`, the figure is -69.6%; as for `CCCCCC(=O)Nc1ccc(C(=O)COC(=O)CN2C(=O)NC3(CCCC3)C2=O)cc1`, 7.37%.
